{"source": "paper PMC9911399", "about": "“Two distinct binding modes provide the RNA-binding protein RbFox with extraordinary sequence specificity”", "binders": {"B1": {"name": "AGACGCG (DNA:RNA)", "RNA": "GGGAGACCGGAAUUCAGAUUGUCCAGACGCGUUAAAUCCCGUCGUAGCCACCA", "DNA 1": "CAATCTGAATTCCGGTCTCCC", "DNA 2": "TGGTGGCTACGACGGGATT"}, "B2": {"name": "AUUGUAA (DNA:RNA)", "RNA": "B1 RNA with G26U, A27U, C28G, G29U, C30A, G31A", "DNA 1": "CAATCTGAATTCCGGTCTCCC", "DNA 2": "TGGTGGCTACGACGGGATT"}, "B3": {"name": "GUCUGUA (DNA:RNA)", "RNA": "B1 RNA with A25G, G26U, A27C, C28U, C30U, G31A", "DNA 1": "CAATCTGAATTCCGGTCTCCC", "DNA 2": "TGGTGGCTACGACGGGATT"}, "B4": {"name": "UCGAUGC (DNA:RNA)", "RNA": "GGGAGACCGGAAUUCAGAUUGUCCUCGAUGCUUAAAUCCCGUCGUAGCCACCA", "DNA 1": "CAATCTGAATTCCGGTCTCCC", "DNA 2": "TGGTGGCTACGACGGGATT"}, "B5": {"name": "ACAUUAG (DNA:RNA)", "RNA": "B1 RNA with G26C, C28U, G29U, C30A", "DNA 1": "CAATCTGAATTCCGGTCTCCC", "DNA 2": "TGGTGGCTACGACGGGATT"}, "B6": {"name": "UGCGACA (DNA:RNA)", "RNA": "B1 RNA with A25U, A27C, C28G, G29A, G31A", "DNA 1": "CAATCTGAATTCCGGTCTCCC", "DNA 2": "TGGTGGCTACGACGGGATT"}, "B7": {"name": "GUGGUGC (DNA:RNA)", "RNA": "B4 RNA with U25G, C26U, A28G", "DNA 1": "CAATCTGAATTCCGGTCTCCC", "DNA 2": "TGGTGGCTACGACGGGATT"}, "B8": {"name": "AGUCGUG (DNA:RNA)", "RNA": "B1 RNA with A27U, C30U", "DNA 1": "CAATCTGAATTCCGGTCTCCC", "DNA 2": "TGGTGGCTACGACGGGATT"}, "B9": {"name": "AUAAUCC (DNA:RNA)", "RNA": "B1 RNA with G26U, C28A, G29U, G31C", "DNA 1": "CAATCTGAATTCCGGTCTCCC", "DNA 2": "TGGTGGCTACGACGGGATT"}}, "note": "Where a chain is given by its changes, count along the chain named. The list shows a part of the results.", "data": [{"molecular_target": "T1, RBFOX1 RRM (Homo sapiens, UniProt Q9NWB1 109-208)", "T1 sequence": "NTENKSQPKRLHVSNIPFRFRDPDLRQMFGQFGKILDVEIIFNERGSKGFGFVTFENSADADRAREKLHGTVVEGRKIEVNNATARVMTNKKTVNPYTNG", "test": "EMSA; HiTS-Eq, 1 nM pool, 10 min; buffer printed only for the single-RNA assays: 10 mM Tris pH 7.5, 150 mM NaCl, 3.4 mM EDTA, 0.001% NP-40, 30 C", "details": "tags: His6 N-terminal (pET28a); label: 5' 32P", "procedure,_shortened": "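Purified RbFox RRM (wild type or mutant) was equilibrated for 10 min in 50 µL with 1 nM of a 5′-radiolabelled pool of RNA with 7 randomized nucleotides, its flanks annealed to DNA oligonucleotides, across increasing protein concentrations. Free RNA was separated by 8% native PAGE, excised, reverse-transcribed, PCR-barcoded and sequenced on an Illumina HiSeq 2500. Relative association constants came from read-count changes of each variant against the control reaction, normalised to the cognate motif.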", "values": [{"binder": "B1", "binding signal": "0.00882 KA relative to UGCAUGU"}, {"binder": "B2", "binding signal": "0.00779 KA relative to UGCAUGU"}, {"binder": "B3", "binding signal": "0.0147 KA relative to UGCAUGU"}, {"binder": "B4", "binding signal": "0.0137 KA relative to UGCAUGU"}, {"binder": "B5", "binding signal": "0.00404 KA relative to UGCAUGU"}, {"binder": "B6", "binding signal": "0.0078 KA relative to UGCAUGU"}, {"binder": "B7", "binding signal": "0.0202 KA relative to UGCAUGU"}, {"binder": "B8", "binding signal": "0.0125 KA relative to UGCAUGU"}, {"binder": "B9", "binding signal": "0.00162 KA relative to UGCAUGU"}]}]}
